Consider two molecules from patent US20150366962A1 (priority 2014, published 2015).

For test [1], the system named is A/Puerto Rico/8/1934(H1N1). Details: species or system BALB/c mice. As to conditions: mouse, in vivo.
Test [2] concerns B/Florida/04/2006 (Yamagata lineage). Also noted: species or system BALB/c mice. As to conditions: mouse, in vivo.

Consider `CCCCCCCCC=CCCCCCCCC(=O)OCC(COP(=O)(O)OCCNC(=O)c1ccc(Cn2c(=O)[nH]c3c(N)nc(OCCOC)nc32)cc1)OC(=O)CCCCCCCC=CCCCCCCCC` (centres unmarked) [Compound 1V270], for which, in test [1], the “morbidity as measured by weight loss” value is listed as “provided protective efficacy”. The “morbidity (weight loss) compared to the no-adjuvant group” value in test [2] is reported as “significantly reduced”.
Take `Cn1c2ccccc2c2nc(SCC(=O)NC3CCCCC3)n(-c3ccccc3)c(=O)c21` [Compound 1Z105]: in test [1], the “morbidity (weight loss) compared to no-adjuvant control receiving 5 μg of rHA” value was “significantly minimized” and the “morbidity as measured by weight loss” value is reported as “provided protective efficacy”. The “morbidity (weight loss) compared to the no-adjuvant group” value in test [2] is “reduced morbidity by restricting weight loss on days 7 and 8 post infection”.
